This is an account of results in the RNAGym collection of RNA variant scans (doi:10.7554/elife.90254).

First the molecules themselves.
B1: LINE1-full (parent)
chain: UACGUAGGUGGUUUUCCCCUGAUAGUGCUAAGGGGGCCUGGAAGUUUGGACUGGGCAGAGCUCAACACAGCGUGGCAAAGUGGCUGUGGCUAGACUGCCUCUCUGGAUUCCUCGUCACUCAGCAGGGCAUCUCUGAGAGAAAUGCC

Read counts are not given, so values of variants with three or more changes are uncertain.

In the series the parent is B1. The experiment in a line: self-cleavage, relative activity (ratio to wild type); higher = more cleavage; in vitro, sequencing; the parent is a self-cleaving ribozyme.
In the case of UACGUAGGCGGUUUUCCCUUGAUAGUGCUAAGGGGGCCUGGAAGUUUGGACCGGGCAGAGCUCAACACAGCGUGGCAAAGUGGCUGUGGCUAGACUGCCUCUCUGGAUUCCUCGUCACACGGCAGGGCAUCUCUGAGAGAAAUGCC [U9C C19U U52C U119A A121G], the self-cleavage worked out at 1.31.
As for UACGUAGGCGGUUUUCACCUGAUAGUGCUAUGGGGGCCUGGAAGUUUGGACUGGGCAGAGCUCAACACAGCGUGGCAAAGUGGCUGUGGCUAGACUGCCUCUCUGGAUUCCUCGUCACUCAGCAGGGCAUCUCUGAGAGAAAUGCC [U9C C17A A31U], the figure is 0.95; as for UACGUAGGCGGUUUUCCCCUGAUAGUGCUAAGGGGGCCUGGAAGUUUGGACUGGGCAGAGCUCAACACAGCGUGGAAAGGUGGCUGUGGCUAGACUGCCUCUCUGGAUUCCUCGUCACUCAGCAGGGCAUCUCUGAGAGAAAUGCC [U9C C76A A79G], 1.18.
As for UACGUAGGCGGUUUUCCCCUGAUAGUGCUAAGGGGGCCUGGAAGUUUGGACUGGGCAGAGCUCAACACAGCGUGGCAAAGUGGCUGUGGCUAGGCUGCCUCUCUGGAUUCCUCGUCACUCAGCAGGGCAUCUCUGAGGGAAAUGCC [U9C A94G A138G], the figure is 1.27.
As for UACGUAGGCGGUUUUCCCCUGAUAGUGCUAAGGGGGCCUGGAAGUUUGGACUGGGCAGAGCUCAACACAGCGUGGCAAGGUGGCUGUGGCUAGACUGCCUCUCUGGAUUCCUCGUCACUCAACAGGGCAUCUCUGAGAGAAAUGCC [U9C A79G G122A], the figure is 1.
Take UACGUAGGCGGUUUUCCCCUGAUAGUGCUAAGGGGGUCUGGAGGUUUGGACUGGGCAGAGCUCAACACAGCGUGGCAAAGUGGCUGUGGCUAGACUGCCUCUCUGGAUUCCUCGUCACUCAGCAGGGCAUCUCUGAUGGAAAUGCC [U9C C37U A43G G137U A138G]: the self-cleavage was 1.94.
As for UACGUAGGCGGUUUUCCCCUGAUAGUGCUAAGGGGGCCUGGAAGUUUGGACUGGGCAGAGCUCAACACAGCGUGGCAAAGUGGCUGUGGUUAGACUGCCUCUCUGGAUUCCUCGUCACUCAGCAGGGCAUCUCUGAGAGAAACGCC [U9C C90U U143C], the self-cleavage worked out at 0.07.
With UACGUAGGCGGUUUUCCCCUGAUAGUGCUAAGGGGGCCUGGAAGUUUGGACUGGGCAGAGCUCAACACAGCGUGGCAAAGUGGCUGUGGCUAGACUGCCUCUCUGGAUUCCUCGUCACUCAGCAGGGCAUCUCUGGGAGAGAUGCC [U9C A136G A141G] the figure was 0.99; with UACGUAGGCGGUUUUCCCCUGAUAGUGCUAAGGGGGCCUGGAAGUUUGGACUGGGCAGAGCUCAACACAGCGUGGCAAAGUGGCUGUGGCUAGGCUGCCUCUCUGGAUUCCUCGCCACUCAGCAGGGCAUCUCUGAGAGAAAUGCC [U9C A94G U115C], 0.
As for UACGUAGGCGGUUUUCCCCUGAUAGUGCUAAGGGGGCCUGGAAGUUUGGACUGGGCAGAGUUCAACACAGCGUGGCAAAGUGGCUGUGGCUAGUCUGCCUCUCUGGAUUCCUCGUCACUCAGCAGGGCAUCUCUGAGAGAAAUGCC [U9C C61U A94U], the figure is 0.02.
With UACGUAGGCGGUUUUCCCCUGAUAGUGCUAAGGGGGCUUGGAAGUUUGGACUGGGCAGAGCUCAACACAGCGUGGCAAAGUGGCUGUGGCUAGACUGCCUCUCUGGAUUCCUCGUCACUCAGCAGGGCAUCUCUGAAAGGACUGCC [U9C C38U G137A A140G A142C] the figure was 0.54; with UACGUAGGCGGUUUUCUCCUGAUAGUGCUAAGGGGGCCCGGAAGUUUGGACUGGGCAGAGCUCAACACAGCGUGGCAAAGUGGCUGUGGCUAGACUGCCUCUCUGGAUUCCUCGUCACUCGGCAGGGCAUCUCUGAGAGAAAUGCC [U9C C17U U39C A121G], 0.
Regarding UACGUAGGCGGUUUUCCCCUGAUAGUGCUAAGGGGGCUUGGAAGUUUGGACUGGGCAGAGCUCAACACAGCGUGGCAAAGUAGCUGUGGCUAGACUGCCUCUCUGGAUUCCUCGUCACCCAGCAGGGCAUCUCUGAGAGAGAUGCC [U9C C38U G82A U119C A141G], the self-cleavage came to 2.3.
Take UACGUAGGCGGUUUUCCCCUGAUAGUGCUAAGGGGGUCUGGAAGUUUGGACUGGGCAGAGCUCAACACAGCGUGGCAAAGUGGCUGUGGCUAGACUGCCUCUCUGGAUUCCUCGUCACUCAGCAGGGCAACUCUGAGAGAAAUGCC [U9C C37U U130A]: the self-cleavage amounted to 1.17.
Consider UACGUAGGCGGUUUUCCCCUGAUAGUGCUAAGGGGGCCUGGAAGUUUGGACUGGGCAGAGCUCAACACAGCGUGGCAAAGUGGCUGUGGCUAGACUGCCUCUCUGGAUUCCUCGUCACUCUGCAGGGCAUCUCUGGGAGAAAUGCC [U9C A121U A136G], for which the self-cleavage was determined as 0.93.
With UACGUAGGCGGUUUUCCCCUGAUAGUGCUAAGGGGGCCUGGAAGUUUGGACUGGGCAGAGCUCAACACAGCGUGGCAAGGUGGCUGUGGCUAGACUGCCUCUCUGGAUUCCUCGUCACUCAGCAGGGCAUCUCUGAGAGAAAUGCA [U9C A79G C146A] the figure was 1.71; with UACGUAGGCGGUUUUCCCCUGAUAGUGCUAAGGGGGACUGGGAGUUAGGACUGGGCAGAGCUCAACACAGCGUGGCAAAGUGGCUGUGGCUAGACUGCCUCUCUGGAUUCCUCGUCACUCAGCAGGGCAUCUCUGAGAGAAAUGCC [U9C C37A A42G U47A], 1.15; with UACGUAGGCGGUUUUCCCAUGAUAGUGCCAAGGGGGCCUGGAAGUUUGGACUGGGCAGAGCUCAACACAGCGUGGCAAAGUGGCUGUGGCUAGACUGCCUCUCUGGAUUCCUCGUCACUCAGCAGGGCAUCUCUGAGAGAAAUGCC [U9C C19A U29C], 0.7.
As for UACGUAGGCGGUUUUCCCCUGAUAGUGCUAAGGGGGCCUGGAAGUUUGGACUGGGCAGAGCUCAACACAGCGUGGCAAAGUGGCUGUGGCUAGACUGCCUCUCUGGAUUCCUCGUCACUCUGCAGGGCAUCUCUGAGAGAAGUGCC [U9C A121U A142G], the figure is 1.19; as for UACGUAGGCGGUUUUCCCCUGAUAGUGCUAAGGGGGCCUGGAAGUUUGGACUGGGCAGAGCUCAACACAGCGUGGCAAAGUGGCUGUGGCUUGACUGCCUCUCUGGAUUCCUCGUCACUCAGCAGGGCAUCUCUGAGAGAAACGCC [U9C A92U U143C], 1.65.
